Out of some 310,000 compounds screened, about 14,000 (4.5%) showed an effect of 50% or more. Effects have a minus sign here. Some of the results follow.
Target: human ether-à-go-go-related gene (hERG) potassium channel (human, UniProt Q12809)
Experiment: primary screen, population patch clamp on CHO cells stably expressing hERG
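Further: peak tail current of the secondary pulse compared with the same well before compound.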

human ether-à-go-go-related gene (hERG) potassium channel, sequence (Q12809 whole entry, looked up): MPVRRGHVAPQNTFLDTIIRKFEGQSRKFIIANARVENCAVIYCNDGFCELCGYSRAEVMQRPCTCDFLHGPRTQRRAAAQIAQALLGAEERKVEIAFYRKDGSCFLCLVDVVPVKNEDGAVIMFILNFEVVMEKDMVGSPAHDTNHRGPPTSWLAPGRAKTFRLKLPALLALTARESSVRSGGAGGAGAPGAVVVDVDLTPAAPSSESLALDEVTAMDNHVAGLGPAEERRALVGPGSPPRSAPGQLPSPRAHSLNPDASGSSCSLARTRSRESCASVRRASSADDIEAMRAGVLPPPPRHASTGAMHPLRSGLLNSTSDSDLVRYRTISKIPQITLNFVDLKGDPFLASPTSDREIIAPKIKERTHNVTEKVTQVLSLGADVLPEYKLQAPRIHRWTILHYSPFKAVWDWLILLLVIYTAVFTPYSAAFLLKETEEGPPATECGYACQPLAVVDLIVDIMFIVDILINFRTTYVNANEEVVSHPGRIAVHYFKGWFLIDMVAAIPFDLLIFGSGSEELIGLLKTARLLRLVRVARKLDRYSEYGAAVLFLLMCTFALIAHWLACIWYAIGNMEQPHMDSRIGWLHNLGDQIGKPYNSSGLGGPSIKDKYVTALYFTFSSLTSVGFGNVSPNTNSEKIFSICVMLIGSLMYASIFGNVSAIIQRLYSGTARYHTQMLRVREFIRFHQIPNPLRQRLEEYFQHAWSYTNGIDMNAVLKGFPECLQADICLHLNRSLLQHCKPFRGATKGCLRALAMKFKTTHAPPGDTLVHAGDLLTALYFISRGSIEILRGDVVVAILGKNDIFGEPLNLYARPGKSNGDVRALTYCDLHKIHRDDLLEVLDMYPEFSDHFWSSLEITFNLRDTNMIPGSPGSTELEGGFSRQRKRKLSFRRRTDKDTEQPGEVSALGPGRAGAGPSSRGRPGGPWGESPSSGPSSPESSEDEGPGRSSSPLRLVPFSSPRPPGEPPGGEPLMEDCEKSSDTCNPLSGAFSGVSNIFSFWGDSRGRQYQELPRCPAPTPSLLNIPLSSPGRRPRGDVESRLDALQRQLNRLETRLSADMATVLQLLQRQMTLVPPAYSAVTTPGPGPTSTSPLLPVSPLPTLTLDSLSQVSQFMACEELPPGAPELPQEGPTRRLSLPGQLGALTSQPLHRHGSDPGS

Compound	hERG current change (%, negative = inhibition) at 10uM
O=C(COC(=O)[C@@H]1CC(O)CN1S(=O)(=O)c1ccc2c(c1)OCCO2)Nc1ccccc1F (some centres unmarked)	14.5%
CCn1c(SCC(=O)NNC(=O)Cc2ccccc2)nnc1-c1ccncc1	7.12%
Cc1ccc(N(C(=O)CNC(=O)c2ccco2)C(C(=O)NC2CCCC2)c2ccncc2)cc1C (centres unmarked)	12.5%
N#CC1(NC(=O)CN2C(=O)NC(c3ccccc3)(c3ccccc3)C2=O)CCCC1	-55%
CC1CCCN(S(=O)(=O)c2ccc(S(=O)(=O)N3CCC4(CC3)OCCO4)cc2)C1 (centres unmarked)	9.55%
COC(=O)C(Cc1ccccc1)NC(=O)CCNC(=O)c1ccc(Br)cc1 (centres unmarked)	-41.3%
CS(=O)(=O)N1CCc2cc(C(=O)O)ccc21	14.4%
COC(=O)[C@H](CCSC)NC(=O)N1CCN(Cc2ccccc2)CC1	-12.5%
CCCc1nc2ccccc2c2nc(N)nn12	-0.0674%
O=C(c1ccccc1)N1CCN(C(=O)c2nn3c(C(F)(F)F)cc(-c4ccccc4)nc3c2Br)CC1	-5.79%
Cn1nc(C(=O)NCCCN2CCCCC2)c2c1-c1ccccc1SC2	-66%
O=C(O)COc1ccccc1/C=N/NC(=O)c1cccc(S(=O)(=O)Nc2cccc(Cl)c2)c1	18.6%
COC(=O)C1=NNC2(c3ccc(C)cc3)C(=O)N(c3ccc(C)cc3)C(=O)C12 (centres unmarked)	16.5%
CC(=O)N1CCN(C(=O)COC(=O)c2oc3ccccc3c2C)CC1	3.98%
O=C(N(c1ccccc1)c1ccccc1)N(c1ccccc1)c1ccccc1	-7.06%
O=C(CCSc1nnc2scc(-c3ccccc3)n12)NCc1ccc2c(c1)OCO2	-11%
COC(=O)CSc1nc2ccc(C)cc2cc1C#N	21.8%
CC1C(c2ccccc2)N(C)CCC12NC(=O)NC2=O (centres unmarked)	-1.73%
COc1ccc(NC(c2ccccc2)P(=O)(Oc2ccccc2)Oc2ccccc2)cc1 (centres unmarked)	5.66%

Compound	hERG current change (%, negative = inhibition) at 10uM
CCC1CCC2(CC1)NNC(=S)NN2	1.8%
CCOc1nc(-c2ccccc2)ccc1-c1noc(COc2ccccc2)n1	-6.14%
O=C(Nc1c(C(=O)O)oc2ccc(Br)cc12)c1ccccc1	0.937%
C=CCn1c(-c2ccccc2)c[nH]c1=S	11.1%
Clc1ccc(-n2cccc2CN2CCc3c([nH]c4ccccc34)C2c2ccccn2)nc1 (centres unmarked)	-77%
COc1nc(Nc2ccccc2)nc(OC)n1	5.84%
Cc1cccc(C(=O)OCC(=O)Nc2ccc(F)cc2)c1	11%
Fc1cccc(Cl)c1CNn1cn[nH]c1=S	12.3%
O=C(CSc1nc2ccccc2n1Cc1ccccc1)N/N=C/c1ccco1	-60.7%
Cc1cccc(Cn2c(C)nc3c(N)c(C)c(C)cc32)c1	-7.08%
CCOC(=O)c1c(NC(=O)COC(=O)Cn2cnc3ccccc32)sc2c1CCC(C)C2 (centres unmarked)	-3.78%
Cc1nn(-c2ccccn2)c(C)c1Oc1ccccc1O	8.9%
N#Cc1cccc(S(=O)(=O)NCc2nnc3ccccn23)c1	13.6%
O=C(Nc1ccc(C(=O)O)cc1)/C(=C\c1ccccc1)NC(=O)c1ccco1	19.8%
CCN(Cc1ccc2c(c1)OCCO2)C(=O)CN1C(=O)NC2(CCCCC2)C1=O	-6.49%
OCC1(CCCc2ccccc2)CCN(C2CCSCC2)CC1	-80.5%
Cc1cc(C(=O)COC(=O)c2cc(Cl)c(O)c(Cl)c2)c(C)n1C	-9.42%
Cc1ccc(-c2cc(C(=O)N3CCc4ccccc4C3)no2)cc1	15.2%
COc1cc(C(CC(=O)Nc2ncccc2C)N2Cc3ccccc3C2=O)cc(OC)c1OC (centres unmarked)	4.39%

Compound	hERG current change (%, negative = inhibition) at 10uM
Oc1ccccc1-c1nc(NCc2ccco2)c2ccccc2n1	1.8%
CCc1ccc2c(CN(C)Cc3ccccc3OC)cc(=O)oc2c1.O=C(O)C(=O)O	-21.3%
O=S1(=O)N=C(N2CCCC2)c2ccccc21	18.9%
COc1ccccc1-n1nnnc1SCC(=O)Nc1cc(C)on1	-15.4%
COc1ccc(S(=O)(=O)N2CCCOC2CNC(=O)C(=O)NCCc2ccco2)cc1 (centres unmarked)	4.42%
C=CCc1ccc(OCCOCCNCCCC)c(OC)c1	-46.5%
COc1ccc(CCNC(=O)C/C(C)=N/NC(=O)C2CCCCC2)cc1OC	8.79%
Cc1ccc(NC(=S)N2CCC(O)CC2)c(C)c1	16.3%
CCOC(=O)C1CN(S(=O)(=O)c2cccs2)c2ccc(CC(=O)OC)cc2O1 (centres unmarked)	-15.1%
COC(=O)CSc1nc(-c2ccccc2)cc(-c2ccco2)c1C#N	12.5%
CC(=O)Nc1ccc(NC(=O)c2ccccc2C)cc1	15.4%
Cc1ccc(-c2csc(NC(=S)NC(=O)/C=C/c3ccco3)n2)cc1	23.6%
CCOc1ccc(-c2nnc3ccc(SCC(=O)Nc4nc5ccc(C)cc5s4)nn23)cc1	-17.8%
COc1ccc(NC(=O)COC(=O)c2cc(OC)c(OC)c(OC)c2)c([N+](=O)[O-])c1	-5.26%
O=C1CN(C(=O)c2ccccc2Br)C(c2ccc(F)cc2)c2cc(F)ccc2N1 (centres unmarked)	-61.6%
CCN(CC)c1ccc(NC(=O)C2CCCC2)cc1	3.17%
Cn1c(N)c(C(=O)CSc2nnc(-c3ccccc3F)n2N)c(=O)n(C)c1=O	15%
Cc1ccc(-c2cc(Cc3ccccn3)c(=O)[nH]n2)cc1	-5.24%

— paper PMC4336329 (PLoS ONE, 2015)
